Experimental data published in the antibiotic and cytotoxicity screens of Wong et al. (2023).
The list shows a part of the results.

Key:
HSkMC = human skeletal muscle cells; assay: cytotoxicity call (relative viability < 0.9); details: 10 µM
HepG2 = assay: cytotoxicity call (relative viability < 0.9); details: 10 µM
S. aureus RN4220 = assay: growth inhibition call (relative growth <= 0.2); details: 50 µM

Compound	cytotoxicity call (HSkMC)	cytotoxicity call (HepG2)	growth inhibition call (S. aureus RN4220)
O=C(O)CCCNC(=O)c1cncc(O)c1	inactive	inactive	inactive
Cc1noc(C)c1NC(=O)N(C)C[C@H]1OCCCC[C@@H](C)Oc2ccc(NC(=O)Nc3ccccc3)cc2C(=O)N([C@H](C)CO)C[C@@H]1C	inactive	inactive	inactive
Cc1ccc(-c2cnc3c(c2)C(=O)N([C@@H](C)CO)C[C@H](C)[C@H](CN(C)C(=O)Cc2ccncc2)O3)cc1	inactive	inactive	inactive
COCC#Cc1ccc2c(c1)O[C@@H](CN(C)S(=O)(=O)c1cccc(F)c1)[C@H](C)CN([C@H](C)CO)S2(=O)=O	inactive	inactive	inactive
O=C1NCCc2cncn21	inactive	inactive	inactive
COCC(=O)N1C[C@@H](C)[C@H](OC)CN(C)C(=O)c2cc(NC(=O)Nc3ccccc3)ccc2OC[C@@H]1C	inactive	inactive	inactive
C[C@H]1CCCCO[C@H](CN(C)Cc2ccc3c(c2)OCO3)[C@@H](C)CN([C@@H](C)CO)C(=O)c2cc(NC(=O)C3CCCCC3)ccc2O1	inactive	inactive	inactive
O=C1CSCC(=O)N1c1cccnc1	inactive	inactive	inactive
CCCSc1ccc2nc(NC(=O)OC)[nH]c2c1	inactive	active	inactive
C[C@@H]1CN([C@@H](C)CO)C(=O)c2cc(NC(=O)c3ccccc3)ccc2O[C@@H](C)CCCCO[C@H]1CN(C)CC1CCCCC1	inactive	active	inactive
Nc1nc(=O)c2[nH]c(=O)cnc2[nH]1	inactive	inactive	inactive
C[C@@H]1CN([C@@H](C)CO)S(=O)(=O)c2ccc(C#CC3CC3)cc2O[C@@H]1CN(C)Cc1ccccc1F	inactive	inactive	inactive
C[C@H](CO)N1C[C@H](C)[C@H](CN(C)Cc2ccc(Cl)c(Cl)c2)Oc2ccc(NC(=O)CCCCCC(=O)Nc3ccccc3N)cc2C1=O	inactive	inactive	inactive
C[C@H]1CN([C@@H](C)CO)C(=O)c2cccc(NS(=O)(=O)c3cccs3)c2O[C@@H]1CN(C)S(=O)(=O)c1ccc(F)cc1	inactive	inactive	inactive
C[C@@H]1CCCCO[C@@H](CN(C)C(=O)Nc2ccc3c(c2)OCO3)[C@H](C)CN([C@@H](C)CO)C(=O)c2cc(NC(=O)Nc3ccc4c(c3)OCO4)ccc2O1	inactive	inactive	inactive
C[C@@H]1CN([C@@H](C)CO)C(=O)c2cccc(NC(=O)c3ccc(-c4nccs4)cc3)c2O[C@@H]1CN(C)C(=O)Nc1ccc2c(c1)OCO2	inactive	inactive	inactive
CC(=O)N[C@H](Cc1ccc2ccccc2c1)C(=O)N[C@H](Cc1ccc(Cl)cc1)C(=O)N[C@H](Cc1cccnc1)C(=O)N[C@@H](CO)C(=O)N(C)[C@@H](Cc1ccc(O)cc1)C(=O)N[C@H](CC(N)=O)C(=O)N[C@@H](CC(C)C)C(=O)N[C@@H](CCCCNC(C)C)C(=O)N1CCC[C@H]1C(=O)N[C@H](C)C(N)=O	inactive	inactive	inactive
Cc1noc(C)c1S(=O)(=O)N(C)C[C@H]1OCCCC[C@@H](C)Oc2ccc(NS(=O)(=O)c3cn(C)cn3)cc2C(=O)N([C@H](C)CO)C[C@@H]1C	inactive	inactive	inactive
COCC#Cc1cnc2c(c1)C(=O)N([C@H](C)CO)C[C@H](C)[C@@H](CN(C)S(=O)(=O)c1cn(C)cn1)O2	inactive	inactive	inactive
Cc1nc(=O)c(C#N)c(NCc2cccnc2)[nH]1	inactive	inactive	inactive
C[C@@H]1CN([C@H](C)CO)C(=O)c2cc(NC(=O)CCN3CCOCC3)ccc2O[C@H]1CN(C)C(=O)Nc1ccc(F)cc1	inactive	inactive	inactive
CO[C@H]1CN(C)C(=O)c2cc(NS(=O)(=O)c3ccccc3C)ccc2OC[C@@H](C)N(S(C)(=O)=O)C[C@@H]1C	inactive	inactive	inactive
C[C@H]1CN([C@@H](C)CO)C(=O)Cc2cc(NC(=O)CCCN(C)C)ccc2O[C@@H]1CN(C)S(C)(=O)=O	inactive	inactive	inactive
C[C@H](CO)N1C[C@H](C)[C@H](CN(C)Cc2ccc(C(F)(F)F)cc2)OCCCC[C@H](C)Oc2ccc(NC(=O)CCCN(C)C)cc2C1=O	inactive	active	inactive
CCN(CC)c1ncc(C#N)c(N)n1	inactive	inactive	inactive
C[C@H]1CN([C@@H](C)CO)S(=O)(=O)c2ccc(C#CC3CC3)cc2O[C@H]1CN(C)C(=O)c1cccc(F)c1	inactive	inactive	inactive
CN(C)CCCNC(=O)C[C@H]1CC[C@@H]2[C@@H](COc3ccc(NC(=O)c4ccccc4F)cc3C(=O)N2C)O1	inactive	inactive	inactive

Compound	cytotoxicity call (HSkMC)	cytotoxicity call (HepG2)	growth inhibition call (S. aureus RN4220)
C[C@@H]1CN([C@@H](C)CO)C(=O)Cc2cc(NC(=O)c3ccncc3)ccc2O[C@@H]1CN(C)Cc1ccc2c(c1)OCO2	inactive	inactive	inactive
CN1C(=O)c2cc(NS(C)(=O)=O)ccc2OC[C@H]2O[C@H](CC(=O)N3CCOCC3)CC[C@H]21	inactive	inactive	inactive
COc1cccc(S(=O)(=O)N2C[C@@H](O)COC[C@H]3O[C@@H](CC(=O)N4CCOCC4)CC[C@@H]32)c1	inactive	inactive	inactive
C[C@@H]1CN([C@@H](C)CO)C(=O)c2cc(C3=CCCC3)cnc2O[C@@H]1CN(C)C(=O)Nc1ccc(C(F)(F)F)cc1	inactive	inactive	inactive
O=C(O)C1CCC1	inactive	inactive	inactive
CN(C)[C@@H]1C(=O)[C@@H](C(=O)NCNCCCC[C@H](N)C(=O)O)C(=O)[C@@]2(O)C(=O)[C@@H]3C(=O)c4c(O)cccc4[C@@](C)(O)[C@H]3C[C@@H]12	inactive	inactive	inactive
COC1(NC(=O)C(C(=O)[O-])c2ccc(O)cc2)C(=O)N2C(C(=O)[O-])=C(CSc3nnnn3C)COC21.[Na+].[Na+] (configuration not stated)	inactive	inactive	active
C[C@@H]1CN([C@@H](C)CO)C(=O)c2cc(NS(=O)(=O)c3ccc(F)cc3)ccc2O[C@H]1CN(C)C(=O)Nc1ccc(C(F)(F)F)cc1	inactive	inactive	inactive
C[C@H]1CN([C@@H](C)CO)C(=O)c2cc(NS(C)(=O)=O)ccc2O[C@@H]1CN(C)S(=O)(=O)c1ccc(F)cc1	inactive	inactive	inactive
O=C(NCCCN1CCOCC1)[C@H]1[C@H](CO)[C@H]2Cn3c(cccc3=O)[C@@H]1N2C(=O)C1CCCCC1	inactive	inactive	inactive
C[C@@H]1CCCCO[C@@H](CN(C)C(=O)NC2CCCCC2)[C@@H](C)CN([C@@H](C)CO)C(=O)c2cc(NC(=O)C3CCCCC3)ccc2O1	inactive	inactive	inactive
Cc1noc(C)c1S(=O)(=O)Nc1ccc2c(c1)C(=O)N([C@H](C)CO)C[C@@H](C)[C@@H](CN(C)C)OCCCC[C@@H](C)O2	inactive	inactive	inactive
CCN(CC)CCOC(=O)c1ccc(N)cc1.Cl	inactive	inactive	inactive
CN(C)C(=O)c1ccc(-c2cccc(-c3nc(C(=O)NC4CCCCC4)cc4c3[C@H](CCO)N([S@@](=O)C(C)(C)C)C4)c2)cc1	inactive	inactive	inactive
COC(=O)C(CC#Cc1ccc2c(c1)[C@]1(C(=O)N2)[C@H](C(=O)N2CCc3cc(OC)c(OC)cc3C2)[C@H]2C(=O)O[C@H](c3ccccc3)[C@H](c3ccccc3)N2[C@@H]1c1ccc(O)cc1)C(=O)OC	inactive	inactive	inactive
CO[C@H]1CN(C)C(=O)c2cc(NC(=O)CC(F)(F)F)ccc2OC[C@@H](C)N(C(=O)C2CCOCC2)C[C@H]1C	inactive	inactive	inactive
Cc1noc(C)c1NC(=O)Nc1ccc2c(c1)C(=O)N([C@@H](C)CO)C[C@@H](C)[C@@H](CN(C)Cc1ccncc1)OCCCC[C@@H](C)O2	inactive	inactive	inactive
C[C@@H]1CCCCO[C@H](CN(C)C(=O)Nc2ccc(C(F)(F)F)cc2)[C@@H](C)CN([C@@H](C)CO)C(=O)c2cc(NS(=O)(=O)c3ccccc3)ccc2O1	inactive	inactive	inactive
C[C@@H]1CN([C@H](C)CO)C(=O)c2cc(NC(=O)c3ccccc3)ccc2O[C@@H](C)CCCCO[C@H]1CN(C)C(=O)Cc1ccccc1	inactive	inactive	inactive
C[C@@H]1CN([C@@H](C)CO)C(=O)Cc2cc(NC(=O)NC3CCCCC3)ccc2O[C@@H]1CN(C)C(=O)Nc1ccc(C(F)(F)F)cc1	inactive	inactive	inactive
COc1cccc(C#Cc2cnc3c(c2)C(=O)N([C@@H](C)CO)C[C@H](C)[C@@H](CN(C)C(=O)C2CCOCC2)O3)c1	inactive	inactive	inactive
CC(C)c1cc(=O)n2nc(N)nc2[nH]1	inactive	inactive	inactive
COCC(=O)Nc1ccc2c(c1)C(=O)N(C)[C@H]1CC[C@@H](CC(=O)N3CCc4ccccc4C3)O[C@H]1CO2	inactive	inactive	inactive
COc1ccc(NC(=O)N(C)C[C@@H]2OCCCC[C@@H](C)Oc3ccc(NS(=O)(=O)c4ccc(OC)cc4)cc3C(=O)N([C@H](C)CO)C[C@H]2C)cc1	inactive	inactive	inactive
CC(=O)n1cc([C@H]2C=C(C(=O)N3CCN(C)CC3)O[C@@H](OCc3ccc(CO)cc3)C2)c2ccccc21	inactive	inactive	inactive
CCS(=O)(=O)Nc1ccc2c(c1)C(=O)N(C)C[C@@H](OC)[C@H](C)CN(Cc1nccs1)[C@@H](C)CO2	inactive	inactive	inactive
CCS(=O)(=O)N1C[C@]2(CCN(CC2)Cc2cccc(c2)OC)c2c([nH]c3cc(ccc23)OC)[C@H]1CO	inactive	inactive	inactive
